Among all 340,000 compounds or so, about 6,900 (2%) were called active. Rule as the data show it: active = inhibition above about 30%; inactive = below that, where a call was filed. This is a selection; strong and weak results do not stand in their true shares. Entries without a call were filed so in the source.

The experiment has as its target D(2) dopamine receptor (Homo sapiens) (UniProt P14416). Briefly: HTS Assay for Allosteric Antagonists of the Human D2 Dopamine Receptor: Primary Screen for Antagonists. Also: 0% is about no effect. As to conditions: HEK293 TREx D2 cells, calcium flux, dopamine EC80; at 10 µM; stronger effect = higher value. An outline of the steps: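 HEK293 T-REx D2 cells, tet-induced, calcium dye no-wash. Cpd pintool add, 180 s kinetic, then EC80 DA, 180 s kinetic. Ca flux read.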
Sequence of UniProt P14416 (P14416 whole entry, looked up): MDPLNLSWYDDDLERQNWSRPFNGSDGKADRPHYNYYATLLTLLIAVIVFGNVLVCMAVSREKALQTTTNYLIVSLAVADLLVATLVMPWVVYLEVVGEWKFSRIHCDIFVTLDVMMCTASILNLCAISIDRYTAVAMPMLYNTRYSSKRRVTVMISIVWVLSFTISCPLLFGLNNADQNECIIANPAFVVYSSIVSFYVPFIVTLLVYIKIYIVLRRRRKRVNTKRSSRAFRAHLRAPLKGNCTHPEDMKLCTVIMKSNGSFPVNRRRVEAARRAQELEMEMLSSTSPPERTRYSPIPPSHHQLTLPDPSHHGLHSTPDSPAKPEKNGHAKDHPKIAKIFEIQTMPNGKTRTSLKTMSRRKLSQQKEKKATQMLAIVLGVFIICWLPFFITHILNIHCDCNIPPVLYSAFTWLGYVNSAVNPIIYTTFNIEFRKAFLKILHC
(In general: Calcium flux is commonly read through the fluorescence of an indicator in the cells.)
In general, inhibition refers to the relative decrease from the control value, in per cent. In the case of `COc1cccc(NC(=O)CCc2c(C)nc3c4cccnc4nn3c2C)c1`, the inhibition is 5.93%.
For `O=C(Nc1ccc(N2CCC(c3ccccc3)C2)c(C(=O)O)c1)c1ccc(Cl)cc1` (stereo unspecified) the value was 17.6%; for `CCc1cccc(CC)c1NC(=O)c1ccc2c(c1)CCN2S(=O)(=O)c1ccccc1`, -4.4%; for `COc1ccccc1OCC(=O)N(Cc1ccc(Cl)cc1)CC1CCCO1` (stereo unspecified), -12.3%.
For `CC(=O)c1ccc(NC(=O)CC2Nc3cccc4cccc(c34)NC2=O)cc1` (stereo unspecified) the value was 13.1%.
For `CSc1ccc(CCNC(=O)CCCn2nc(C)c3sc4ccccc4c3c2=O)cc1` the value was -4.49%; for `Cc1cccc(NC(=O)CN2C(=O)c3cccnc3Oc3ccc(Cl)cc32)c1C`, 0.638%.
For `CC1=Nc2cc(C(=O)NC3CCCC3)ccc2Sc2ccc(C)cc21`, the inhibition was -1.04%.
For `Cc1ccc(Nc2nnc(C)c(=O)[nH]2)cc1` the value was active: 43.2%; for `COc1cccc(C(=O)Nc2ccccc2C(=O)OCc2cc(=O)n3c(C)csc3n2)c1`, 0.795%; for `COc1ccc(NC(=O)Cn2c(C)cc3ccccc3c2=O)c(OC)c1`, 3.91%.
Next, `Cc1nn(-c2nc(-c3ccc(F)cc3)cc(C(F)(F)F)n2)c(C)c1Br`: -15.6%; `COC(=O)c1cc(C)nc2c1c(=O)nc(SCc1cccc(C)c1)n2C1CC1`: 6.31%.
For `COCCCNC(=O)c1cnn(-c2ccccc2Cl)c1C1CCN(C(=O)OC(C)(C)C)CC1` the value was 13.4%; for `COc1ccc(CNC(=O)C2CCN(C(=O)c3ccc(-n4ccc5ccccc54)s3)CC2)cc1`, -3.84%.
With `COC(=O)c1ccc(NC(=O)CSc2cn(CC(=O)N3CCCCCC3)c3ccccc23)cc1`, the inhibition is -6.72%.
Next, `COc1ccc(CCNC(=O)c2cccc(-n3c(C)nc4cccnc43)c2)cc1OC`: -2.27%; `Cc1c(NC(=O)c2cc(-c3ccc(O)cc3)on2)c(=O)n(-c2ccccc2)n1C`: -8.8%.
Next, `COc1ccc(NC(=O)C(=O)NCCc2ccc(OC)c(OC)c2)c(OC)c1`: -9.91%; `O=C(COc1ccccc1Cl)OCc1cc(=O)n2nc(C3CC3)sc2n1`: 1.91%; `COc1ccccc1CNc1nc2ccccc2c2nc(-c3cccnc3)nn12`: -0.488%.
Turning to `NNC(=O)CN1C(c2cccc(Cl)c2)=Nc2ccc(Br)cc2C1c1ccccc1` (stereo unspecified), the inhibition was active: 33.9%.
For `NC(=O)C1(N2CCCCC2)CCN(Cc2ccc(Br)cc2)CC1` the value was active: 36.8%; for `COc1ccc(Cl)cc1NC(=O)c1cc2ccc3ccc(C)[nH]c3c2n1`, 25.4%.
For `COC(=O)C1Cc2c([nH]c3ccccc23)C2(CCN(Cc3ccccc3)CC2)N1` (stereo unspecified) the value was active: 75%.
Regarding `Cn1cc(S(=O)(=O)c2ccc(Cl)cc2)c(=O)c2cc(F)c(N3CCCC3)cc21`, the inhibition was 8.29%.
Next, `Cc1ccc(Cn2c(CNS(=O)(=O)c3ccc(C(C)(C)C)cc3)nc3cccnc32)cc1`: -5.77%.
For `Cc1nc2sccn2c(=O)c1S(=O)(=O)NCc1ccc(F)cc1` the value was 6.91%; for `CCc1ccc(NC(=O)CSc2c(C)cnc3c2c(=O)n(C)c(=O)n3C)cc1`, -6.34%.
For `Cn1c(=O)c2nc(SCC(=O)Nc3cc(Cl)cc(Cl)c3)n(C)c2n(C)c1=O` the value was -14.2%.
For `O=C(c1cc(-c2ccc(Cl)cc2)on1)N(Cc1cccc(F)c1)Cc1ccco1`, the inhibition is -20.1%.
Next, `COc1ccc(CNc2nc(-c3ccco3)nn2C(=O)c2ccccc2Cl)cc1`: -5.37%.
Next, `COc1cc(NC(=O)c2cc(-c3cccs3)on2)c(OC)cc1Cl`: 1.92%.
On to `COc1ccc(-c2cc(C(=O)Nc3ccc4c(c3)OCO4)no2)cc1OC`, for which the inhibition was -21.7%.
Next, `CC(C)C[C@H]1CN=C(Nc2ccccc2)N1CCc1ccc(F)cc1`: active: 73.5%; `COCCCn1c(=N)c(S(=O)(=O)c2ccccc2)cc2c(=O)n3cc(C)ccc3nc21`: -7.62%.
For `COc1cccc(NC(=O)C2CCCN(c3nnc(-n4c(C)ccc4C)s3)C2)c1` (stereo unspecified) the value was 0.628%; for `Cc1ccc(OCC(=O)OCc2cc(=O)n3nc(-c4cccs4)sc3n2)cc1`, -2.53%.
For `COc1ccccc1CNC(=O)CCCn1nc(C)c2sc3ccccc3c2c1=O` the value was 21.3%; for `Cc1ccccc1OCC(=O)Nc1ccc2nc(SCC(=O)N(C)c3ccccc3)sc2c1`, -17.2%.
For `CC(C)(C)OC(=O)N1CCC(c2c(C(=O)N3CCN(c4ccc(Cl)cc4)CC3)cnn2-c2ccc(F)cc2F)CC1`, the inhibition was 1.78%.
For `Cc1ccccc1OCC(=O)N(Cc1ccc(N(C)C)cc1)CC1CCCO1` (stereo unspecified) the value was -5.89%; for `Cn1cc(-c2cc3n(n2)CCC(=O)N3CC(=O)O)c2ccccc21`, -0.896%; for `Cc1cccc(CNC(=O)CCCN2C(=O)CCn3nc(-c4cn(C)c5ccccc45)cc32)c1`, 20.3%.
Next, `C[C@H](N=C1NS(=O)(=O)c2ccccc21)C(=O)OCc1cc([N+](=O)[O-])cc2c1OCOC2`: active: 44.6%; `CCN1CCN(c2c(S(=O)(=O)c3ccccc3)cnc3ccc(Cl)cc23)CC1`: -8.32%; `CCOc1ccc(CC(=O)NC2CC(=O)N(c3ccc(C)c(C)c3)C2)cc1` (stereo unspecified): -22%.
For `COc1ccccc1N(CC(=O)Nc1ccc(C)c(Cl)c1)S(=O)(=O)c1ccc(C)cc1` the value was -1.85%.
In the case of `O=C(C1CCC1)N1CCCc2cc(S(=O)(=O)Nc3ccc(F)cc3)ccc21`, the inhibition was 13.9%.
Next, `C#CC(C)(CC)NC(=O)c1cc2c(n(-c3ccc(Cl)cc3)c1=O)CC(C)(C)CC2=O` (stereo unspecified): 6.65%; `COCCn1c(C)cc(O)c(C(c2ccc(C)cc2)N2CCCCC2)c1=O` (stereo unspecified): 10.1%; `CC(=O)N1CCc2cc(Br)cc(S(=O)(=O)N3CCN(c4cc(C)ccc4C)CC3)c21`: 0.687%.
Next, `CC(=O)N1c2ccccc2C(=O)C1N1CCN(c2cccc(C(F)(F)F)c2)CC1` (stereo unspecified): 4.66%; `Cc1cccc(N2CCN(S(=O)(=O)c3ccc(F)c(C(=O)Nc4ccc(C(C)C)cc4)c3)CC2)c1C`: 6.44%; `COc1ccc(-c2noc(CN3CCN(c4cccc(Cl)c4)CC3)n2)cc1`: 4.32%.
For `Cc1cc(C)cc(NS(=O)(=O)c2ccc3[nH]cc(C(=O)N4CCCCCC4)c(=O)c3c2)c1` the value was 1.98%; for `COc1ccc(OC)c(Nc2ncnc3c2cnn3-c2ccc(C)cc2)c1`, -3.08%.
Consider `CCCc1cc(C(=O)Nc2cccc(Cl)c2)no1`, for which the inhibition is active: 33.1%.
Next, `COc1ccc(S(=O)(=O)NCC2CCCN(C(=O)c3ccco3)C2)cc1` (stereo unspecified): active: 31.5%.
In the case of `Cn1c(=O)n(C/C=C/c2ccccc2)c(=O)c2c1nc1n2CCN1c1ccc(Cl)cc1`, the inhibition was -9.52%.
Next, `O=C(c1cccs1)N1CCC(C(=O)N2CCN(Cc3ccc4c(c3)OCO4)CC2)CC1`: active: 52.1%.

For the origin of these results see PubChem BioAssay AID485344 (National Center for Advancing Translational Sciences (NCATS), 2010).
